# According to PubChem BioAssay AID651820 (National Center for Advancing Translational Sciences (NCATS), 2012):
# In all, about 340,000 compounds went through this assay and about 12,000 (3.5%) were called active. Inconclusive results, whose numbers are uncertain, are shown with a selection of clear calls. Calls come from the whole dose curve; as a rule, active = well fitted inhibition curve with a large enough effect; inconclusive = small, poorly fitted or top-dose-only effect, or another doubt; inactive = no such curve, though single readings can be large or run the other way. Potencies of inconclusive entries are left out as doubtful fits.
# Test: qHTS Assay for Inhibitors of Hepatitis C Virus (HCV)
# Settings: Huh7.5.1 HCVcc-Cre (HCVcc is cell-culture hepatitis C virus) infection, luciferase reporter, 44 h; series mostly up to 41.8 µM
# Method in brief: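 Cells seeded at 1,000/well and cultured 4 h, then compounds added followed by HCVcc-Cre virus (~0.5 moi). After 44 h further culture, luciferase substrate was added, plates held 15 min at room temperature, and luminescence read for 15 sec.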
# Potency is the fitted concentration of half-maximal effect; tags give direction and shape of the fitted curve.
row,Compound,Potency
1,Cc1nc2ccc(Cl)cc2c(-c2ccccc2)c1C(=O)N(C)C,"inconclusive [inhibitor, single point]"
2,Cc1nn(CC(=O)O)c(C)c1N,"inconclusive [inhibitor, single point]"
3,Cc1ccc(C(=O)NCCN2C3=NC[C@@H](Cc4ccccc4)N3C[C@H]2Cc2ccc(O)cc2)cc1Br,inactive
4,CCSc1ccc2nnc(-c3ccc(F)cc3)n2n1,"inconclusive [inhibitor, partial curve, poor fit]"
5,CC(C)NC(=O)CN1CCN(Cc2nc(C(c3ccccc3)c3ccccc3)no2)CC1,inactive
6,CCc1sc(C(=O)NCc2cc(C)n(C)n2)cc1Br,"inconclusive [inhibitor, partial curve]"
7,COc1ccccc1NC(=O)CSc1ccc(-c2ccc(-n3cccn3)cc2)nn1,"inconclusive [inhibitor, single point]"
8,Cc1ccc(NC(=O)c2ccc(NCCCN3CCC(C)CC3)c([N+](=O)[O-])c2)cc1F,"inconclusive [inhibitor, full curve]"
9,O=C(c1ccccc1)n1ccn(-c2ccccc2)c1=S,"inconclusive [inhibitor, partial curve]"
10,COC(=O)[C@@H](CC(C)C)NS(=O)(=O)N(Cc1ccccc1)[C@@H](CC(C)C)C(=O)OC,inactive
11,CCN(CC)S(=O)(=O)c1cccc(NC(=O)COc2ccc(Cl)cc2Br)c1,"inconclusive [inhibitor, full curve]"
12,CCCCC(=O)Nc1ccc(C(=O)OC2CCCCC2)cc1,"inconclusive [inhibitor, partial curve]"
13,NC(=O)c1ccc(NC(=O)CNCc2ccccc2Cl)cc1,inactive
14,COC(=O)c1ccc(Cl)c(NC(=O)NC23CC4CC(CC(C4)C2)C3)c1,"inconclusive [inhibitor, single point]"
15,COc1ccc(NC(=O)c2cc(C)cc(C)c2)cc1S(=O)(=O)N1CCCCC1,"inconclusive [inhibitor, full curve]"
16,O=C1CCCN1CCCN=c1c([N+](=O)[O-])nn(-c2ccc(Cl)cc2)n1O,active: 11.2 µM
17,COC(=O)[C@@]12CCCN1[C@H](c1ccc(-c3ccc(Cl)c(Cl)c3)cc1)[C@H]1C(=O)N(C)C(=O)[C@H]12,"inconclusive [inhibitor, partial curve]"
18,Cc1ccc(N2C(=O)N(CC(=O)Nc3ccc(C)c(C)c3)C(=O)C2C)cc1 (stereo unspecified),"inconclusive [inhibitor, partial curve, poor fit]"
19,O=C(NC1CCc2ccccc21)C1CCN(S(=O)(=O)c2ccc(Cl)cc2)CC1 (stereo unspecified),inactive
20,O=C1[C@H](c2ccccc2)[C@@H](c2ccccc2)N1c1ccncc1,inactive
21,Cc1ccc(S(=O)(=O)Nc2ccc(O)c3ccccc23)c(C)c1,"inconclusive [inhibitor, single point]"
22,Cc1ccc(NC(=O)COC(=O)c2ccco2)cc1C,inactive
23,COc1ccccc1[C@]1(C)ON(c2ccccc2C(F)(F)F)C1=O,"inconclusive [inhibitor, single point]"

row,Compound,Potency
1,Cc1ccc(S(=O)(=O)Nc2ccc3nc(C)sc3c2)cc1,"inconclusive [inhibitor, single point]"
2,O=C1N[C@@H](Cc2ccccc2)COC(=O)[C@H](Cc2ccc(F)cc2)CC/C=C/C[C@H]1CC(=O)N(CCO)Cc1ccccc1,"inconclusive [inhibitor, single point]"
3,COc1cc(OC)c(OC)cc1/C=C/C(=O)c1ccc(NS(=O)(=O)c2ccc(C)cc2)cc1,"inconclusive [inhibitor, partial curve]"
4,N#Cc1c(-c2ccccc2)nc(N2CCN(Cc3ccccc3)CC2)[nH]c1=O,"inconclusive [inhibitor, single point]"
5,CC1(C)CC(NC(=O)C2CCC(=O)N(Cc3ccccc3F)C2)CC(C)(C)C1 (stereo unspecified),inactive
6,Cc1cc(C)cc(NC(=O)CSc2nc3c(c(=O)n2C)SC(C)C3)c1 (stereo unspecified),"inconclusive [inhibitor, single point]"
7,NCCCNC(=O)c1ccc(/C=N/O)nc1,inactive
8,COC(=O)c1ccc(COc2cc([N+](=O)[O-])cc3cccnc23)o1,inactive
9,COc1ccccc1N1CCN(CCCNC(=O)Nc2ccccc2)CC1,inactive
10,O=c1oc(-c2ccccc2NS(=O)(=O)c2ccc(Cl)cc2)nc2ccccc12,"inconclusive [inhibitor, partial curve]"
11,Cc1cc(N2CCOCC2)ccc1/C=C1\NC(=O)N(CC(=O)Nc2ccccc2C)C1=O,inactive
12,CC(Oc1cccc(Cl)c1)C(=O)Nc1cc(=O)n(C)c(=O)n1C (stereo unspecified),"inconclusive [inhibitor, single point]"
13,Cc1ccc(S(=O)(=O)N(CC(=O)N/N=C/c2cccc(C)c2)c2cccc3cccnc23)cc1,inactive
14,Cc1csc(NC(=O)Cc2c[nH]c3ccccc23)n1,inactive
15,CCOc1ccc2nc(NCCNC(=O)CC)c(C#N)cc2c1,"inconclusive [inhibitor, partial curve]"
16,COc1ccc(-c2oc3ccc(-c4ccc(OC)nc4)cc3c2C#CC2(O)CCCCC2)cc1,"inconclusive [inhibitor, full curve]"
17,CCn1c(SCC(=O)Nc2nncs2)nnc1C(C)NC(=O)c1ccccc1Br (stereo unspecified),inactive
18,COc1cc(-n2c(=O)c3ccccc3n(CC(=O)c3ccccc3)c2=O)cc(OC)c1OC,inactive
19,Cc1ccccc1OCCC(=O)Nc1cc(S(=O)(=O)N2CCCCC2)ccc1N1CCN(C)CC1,"inconclusive [inhibitor, single point]"
20,O=C(C1CCCO1)N1CCN(S(=O)(=O)c2ccc(Cl)cc2)CC1 (stereo unspecified),inactive
21,O=C(Nc1ccccc1C(=O)Nc1ccc(Br)cn1)c1ccccc1Cl,active: 12.6 µM
22,Cc1ccc2[nH]c(=O)c(CN(CCO)Cc3nnnn3CCc3ccccc3)cc2c1,inactive
23,CCOC(CNC(=O)c1cccn2c(=O)c3cc(Cl)ccc3nc12)OCC,"inconclusive [inhibitor, single point]"
